# From the supplement of paper PMC9135407
# Values joined by “and” are separate entries in the source; they are usually repeats but may differ in a detail not shown here. Equal entries are not always repeated. Structures can show the parent of a compound that is named as a salt. Among all 5,800 compounds or so, about 620 (11%) showed activity.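 Rule for the calls: active = score above a cut-off or among the top three wells of a plate; in these data no inactive exceeds 0.85.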 Only a part is listed here, and it is no random draw.
# Tested on: primary human hepatic stellate cells (donor 1)
# Experiment: scaled lipid accumulation score (0 = DMSO-like, 1 = nortriptyline-like); higher = stronger HSC inactivation (lipid re-accumulation), active = hit call of the paper
# Details: 48 h
# [1] = library stock concentration: 10 mM
# [2] = library stock concentration: 3.33 mM
# [3] = library stock concentration: 2 mM
# [4] = library stock concentration: 1 mM
# [5] = library stock concentration: 7.9 mM
# [6] = library stock concentration: 80 uM
# [7] = library stock concentration: 400 uM
compound,measurement,setting,value
NCC(O)(CS(=O)(=O)O)c1ccc(Cl)cc1 (stereo not drawn) [2-Hydroxysaclofen],scaled lipid accumulation score,[1],inactive: ≤ 0 and inactive: 0.019
Cc1cc(C)c2c(c1)[C@@H](N(Cc1cc(C(F)(F)F)cc(C(F)(F)F)c1)c1nnn(C)n1)CCCN2C[C@H]1CC[C@H](C(=O)O)CC1,scaled lipid accumulation score,[2],inactive: ≤ 0
same,scaled lipid accumulation score,[1],inactive: ≤ 0
COc1cc(N2CCC(N3CCN(C)CC3)CC2)ccc1Nc1ncc(Cl)c(-c2c[nH]c3ccccc23)n1,scaled lipid accumulation score,[3],active: 0.981
same,scaled lipid accumulation score,[1],active: 0.967
O=C(O)Cc1ccc(OCCNC[C@H](O)c2ccccc2)cc1 [ZD 2079 hydrochloride],scaled lipid accumulation score,[1],inactive: ≤ -0.001
CC(C1=C(CCN(C)C)Cc2ccccc21)c1ccccn1 (stereo in doubt) [(S)-(+)-Dimethindene maleate],scaled lipid accumulation score,[1],inactive: 0.162
Nc1nc(N)c2nc(CNc3ccc(C(=O)N[C@@H](CCC(=O)O)C(=O)O)cc3)cnc2n1 [Aminopterin],scaled lipid accumulation score,[1],inactive: ≤ 0 and inactive: 0.071
C=C1CC2(O)OC3(CC2C(C)C)C(C)CCC13 (stereo not drawn) [Curcumol],scaled lipid accumulation score,[2],inactive: ≤ 0
same,scaled lipid accumulation score,[1],inactive: ≤ 0
CC(C(=O)O)c1cccc(C(=O)c2ccccc2)c1 (stereo not drawn) [Ketoprofen],scaled lipid accumulation score,,inactive: ≤ 0
same,scaled lipid accumulation score,[4],inactive: ≤ 0
same,scaled lipid accumulation score,[2],inactive: ≤ 0
same,scaled lipid accumulation score,[5],inactive: ≤ -0.006 and inactive: ≤ 0
same,scaled lipid accumulation score,[1],inactive: ≤ 0 and inactive: 0.169
CC(C(=O)O)c1cccc(C(=O)c2ccccc2)c1 (stereo not drawn) [Ketoprofen (s)],scaled lipid accumulation score,[5],inactive: ≤ 0
Cc1[nH]c(/C=C2\C(=O)Nc3ccc(S(=O)(=O)Cc4c(Cl)cccc4Cl)cc32)c(C)c1C(=O)N1CCC[C@@H]1CN1CCCC1,scaled lipid accumulation score,[6],active: 1.15
same,scaled lipid accumulation score,[7],active: 1.16
same,scaled lipid accumulation score,[3],active: 1.16
C[C@H](NC(=O)C(C#N)=Cc1cccc(Br)n1)c1ccccc1,scaled lipid accumulation score,[2],active: 1.05
c1cc(-c2cnn3cc(-c4ccc(N5CCNCC5)cc4)cnc23)c2cccnc2c1,scaled lipid accumulation score,[2],inactive: 0.073
same,scaled lipid accumulation score,[1],inactive: ≤ 0
COc1cc(C(O)CO)ccc1OS(=O)(=O)O (stereo not drawn) [MHPG sulfate potassium],scaled lipid accumulation score,[1],inactive: ≤ -0.07
Fc1ccc([C@@H]2CCNC[C@H]2COc2ccc3c(c2)OCO3)cc1.O=C(O)/C=C\C(=O)O [Paroxetine],scaled lipid accumulation score,[1],active: 1.02
CC(C)n1nnc2cc(C(=O)O)ccc21,scaled lipid accumulation score,[1],inactive: 0.001
COC(=O)c1c(C)[nH]c(C)c1C(=O)c1ccccc1Cc1ccccc1,scaled lipid accumulation score,[1],inactive: 0.13 and inactive: 0.001
CCCC1O[C@@H]2C[C@H]3[C@@H]4CCC5=CC(=O)C=C[C@]5(C)[C@H]4[C@@H](O)C[C@]3(C)[C@]2(C(=O)CO)O1 (stereo partly drawn) [Budesonide],scaled lipid accumulation score,,inactive: 0.167
same,scaled lipid accumulation score,[2],inactive: ≤ 0
same,scaled lipid accumulation score,[1],inactive: ≤ 0 and inactive: ≤ -0.001
CCCC1O[C@@H]2C[C@H]3[C@@H]4CCC5=CC(=O)C=C[C@]5(C)[C@H]4[C@@H](O)C[C@]3(C)[C@]2(C(=O)CO)O1 (stereo partly drawn),scaled lipid accumulation score,[1],inactive: ≤ 0
"NCCC1CCCC(CCN)N1 (stereo not drawn) [MDL 26,630 trihydrochloride]",scaled lipid accumulation score,[1],inactive: ≤ -0.055
CCOC(=O)[C@H](CCc1ccccc1)N[C@H]1CCCN2CCC[C@@H](C(=O)O)N2C1=O [Cilazapril Monohydrate],scaled lipid accumulation score,[2],inactive: ≤ 0
same,scaled lipid accumulation score,[1],inactive: ≤ 0
COc1cc(C(C)=O)ccc1OCCCN1CCC(c2noc3cc(F)ccc23)CC1 [Iloperidone],scaled lipid accumulation score,[2],inactive: 0.045
same,scaled lipid accumulation score,[1],inactive: 0.477
CC(C)c1ccc2c(c1)CC[C@H]1[C@](C)(CN)CCC[C@]21C.Cl [Leelamine (hydrochloride)],scaled lipid accumulation score,[4],active: 0.297
CN1[C@@H]2CC[C@H]1CC(OC(=O)c1c[nH]c3ccccc13)C2 (stereo partly drawn) [3-Tropanyl-indole-3-carboxylate hydrochloride],scaled lipid accumulation score,[1],inactive: 0.561
CN1CCN(Cc2ccc(-c3cnc4[nH]cc(-c5ccc6[nH]ccc6c5)c4c3)cc2)CC1,scaled lipid accumulation score,[3],active: 1.3
CC[C@]1(O)C[C@H]2CN(CCc3c([nH]c4ccccc34)[C@@](C(=O)OC)(c3cc4c(cc3OC)N(C)[C@H]3[C@@](O)(C(=O)OC)[C@H](OC(C)=O)[C@]5(CC)C=CCN6CC[C@]43[C@@H]65)C2)C1.O=S(=O)(O)O [Vinblastine sulfate],scaled lipid accumulation score,[1],active: 1.67
Nc1[nH]nc2nnc(-c3c(-c4ccccc4)nn4ccccc34)cc12,scaled lipid accumulation score,[6],inactive: 0.061
same,scaled lipid accumulation score,[7],inactive: 0.076
same,scaled lipid accumulation score,[3],inactive: ≤ -0.009
same,scaled lipid accumulation score,[2],inactive: ≤ 0
same,scaled lipid accumulation score,[1],inactive: ≤ -0.001 and inactive: 0.026
O=C1CN(/N=C/c2ccc(-c3ccc([N+](=O)[O-])cc3)o2)C(=O)N1 [Dantrolene sodium],scaled lipid accumulation score,library stock concentration: 5.9 mM,inactive: ≤ 0
same,scaled lipid accumulation score,[1],inactive: ≤ -0.07
"O=C1CN(/N=C/c2ccc(-c3ccc([N+](=O)[O-])cc3)o2)C(=O)N1 [Dantrolene, sodium salt]",scaled lipid accumulation score,[1],inactive: ≤ 0
O=C1CN(/N=C/c2ccc(-c3ccc([N+](=O)[O-])cc3)o2)C(=O)N1 [Dantrolene sodium salt],scaled lipid accumulation score,,inactive: 0.207
O=C1CN(/N=C/c2ccc(-c3ccc([N+](=O)[O-])cc3)o2)C(=O)N1 [Dantrolene?Sodium],scaled lipid accumulation score,[1],inactive: ≤ 0
CC(C)OC(=O)CCC/C=C\C[C@@H]1[C@@H](/C=C/[C@@H](O)COc2cccc(C(F)(F)F)c2)[C@H](O)C[C@@H]1O,scaled lipid accumulation score,[1],inactive: ≤ 0
CCOC(=O)n1ccn(C)c1=S [Carbimazole],scaled lipid accumulation score,,inactive: 0.035
same,scaled lipid accumulation score,[2],inactive: ≤ 0
same,scaled lipid accumulation score,[1],inactive: 0.044 and inactive: ≤ -0.027
COc1cc(O)c2c(c1)C(=O)c1cc(C)cc(O)c1C2=O [Rheochrysidin],scaled lipid accumulation score,[2],inactive: 0.035
same,scaled lipid accumulation score,[1],inactive: ≤ 0
CN1CCN2c3ccccc3Cc3ccccc3C2C1.Cl (stereo not drawn) [Mianserin hydrochloride],scaled lipid accumulation score,[1],active: 0.869
COc1cc(N2CCC(N)CC2)ccc1Nc1ncc(Cl)c(-c2c[nH]c3ccccc23)n1,scaled lipid accumulation score,[2],inactive: 0.146
same,scaled lipid accumulation score,[1],inactive: 0.238
CC1(O)CCC(C(C)(C)O)CC1 (stereo not drawn),scaled lipid accumulation score,[1],inactive: ≤ 0
CC1(C)S[C@@H]2[C@H](NC(=O)[C@H](C(=O)O)c3ccsc3)C(=O)N2[C@H]1C(=O)O [Ticarcillin sodium],scaled lipid accumulation score,,inactive: ≤ 0
same,scaled lipid accumulation score,[2],inactive: ≤ 0
same,scaled lipid accumulation score,[1],inactive: ≤ -0.001
CC1(C)S[C@@H]2[C@H](NC(=O)[C@H](C(=O)O)c3ccsc3)C(=O)N2[C@H]1C(=O)O,scaled lipid accumulation score,[1],inactive: ≤ 0
COc1c/c(=C2\C=c3ccccc3=N2)[nH]/c1=C\c1[nH]c(C)cc1C [Obatoclax Mesylate (GX15-070)],scaled lipid accumulation score,[2],inactive: 0.602
same,scaled lipid accumulation score,[1],inactive: 0.617
Cc1cc(NS(=O)(=O)c2ccc(N)cc2)no1 [Sulfamethoxazole],scaled lipid accumulation score,,inactive: 0.056
same,scaled lipid accumulation score,[2],inactive: ≤ 0
same,scaled lipid accumulation score,[5],inactive: ≤ 0
same,scaled lipid accumulation score,[1],inactive: ≤ 0 and inactive: 0.06
CN[C@@H]1[C@@H](O)[C@@H](O[C@@H]2[C@@H](O)[C@H](O[C@H]3OC(CN)=CC[C@H]3N)[C@@H](N)C[C@H]2N)OC[C@]1(C)O [Sisomicin sulfate],scaled lipid accumulation score,,inactive: 0.028
same,scaled lipid accumulation score,[1],inactive: ≤ 0
O=C(c1ccc2c(c1)OCCO2)N1CCCCC1,scaled lipid accumulation score,[1],inactive: ≤ -0.07
COc1cc(C(=O)OCCCN2CCCN(CCCOC(=O)c3cc(OC)c(OC)c(OC)c3)CC2)cc(OC)c1OC.Cl.Cl [Dilazep dihydrochloride],scaled lipid accumulation score,[1],active: 1.06
OCCN1CCN(CCCN2c3ccccc3Sc3ccc(Cl)cc32)CC1,scaled lipid accumulation score,[1],active: 0.962
Cc1nc2sccn2c(=O)c1CCN1CCC(=C(c2ccccc2)c2ccc(F)cc2)CC1,scaled lipid accumulation score,[6],inactive: ≤ -0.001
same,scaled lipid accumulation score,[7],inactive: ≤ -0.001
same,scaled lipid accumulation score,[3],inactive: ≤ -0.001
same,scaled lipid accumulation score,[1],inactive: 0.463 and inactive: 0.19
CC(C)(C)C(=O)C(Oc1ccc(Cl)cc1)n1ccnc1 (stereo not drawn) [Climbazole],scaled lipid accumulation score,[2],inactive: ≤ 0
same,scaled lipid accumulation score,library stock concentration: 6.8 mM,inactive: ≤ 0
same,scaled lipid accumulation score,[1],inactive: ≤ -0.001
O=C(NCCCNc1nc(Nc2cccc(NC(=O)N3CCCC3)c2)ncc1I)c1cccs1,scaled lipid accumulation score,[1],active: 1.2
Cc1ccccc1OCC(O)CO (stereo not drawn) [Mephenesin],scaled lipid accumulation score,,inactive: 0.035
same,scaled lipid accumulation score,[1],inactive: ≤ 0
same,scaled lipid accumulation score,library stock concentration: 11 mM,inactive: ≤ 0
"CCCCCCC(=O)SC[C@H](COP(=O)([O-])OCC[N+](C)(C)C)SC(=O)CCCCCC [1,2-bis(heptanoylthio) Glycerophosphocholine]",scaled lipid accumulation score,[4],inactive: ≤ 0
O=C1CN(/N=C/c2ccc([N+](=O)[O-])o2)C(=O)N1,scaled lipid accumulation score,[1],inactive: ≤ 0
O=C1CN(/N=C/c2ccc([N+](=O)[O-])o2)C(=O)N1 [Nitrofurantoin],scaled lipid accumulation score,,inactive: ≤ 0
same,scaled lipid accumulation score,[1],inactive: ≤ 0
CS(=O)(=O)c1ccc(-c2cc(Br)sc2-c2ccc(F)cc2)cc1,scaled lipid accumulation score,[4],inactive: ≤ 0
same,scaled lipid accumulation score,[1],inactive: ≤ 0 and inactive: ≤ -0.006
CC(C)N(CCCNC(=O)Nc1ccc(C(C)(C)C)cc1)C[C@H]1O[C@@H](n2cc(Br)c3c(N)ncnc32)[C@H](O)[C@@H]1O,scaled lipid accumulation score,[2],inactive: 0.805
CC1=C(CC(=O)O)c2cc(F)ccc2/C1=C\c1ccc(S(C)(=O)=O)cc1 [Sulindac sulfone],scaled lipid accumulation score,[1],inactive: ≤ 0
CCOC(=O)C1=C(COCCN)NC(C)=C(C(=O)OC)C1c1ccccc1Cl.O=S(=O)(O)c1ccccc1 (stereo not drawn) [Amlodipine besylate],scaled lipid accumulation score,[1],active: 1.02
C[C@H](N)[C@H](O)c1cccc(O)c1 [Metaraminol bitartrate],scaled lipid accumulation score,,inactive: ≤ 0
same,scaled lipid accumulation score,library stock concentration: 6.3 mM,inactive: ≤ 0
same,scaled lipid accumulation score,[1],inactive: ≤ -0.027
CCN(CC)CCNC(=O)c1c(C)[nH]c(/C=C2\C(=O)Nc3ccc(F)cc32)c1C.O=C(O)C[C@H](O)C(=O)O,scaled lipid accumulation score,[3],active: 1.66
